Measured values: PMC11472058, “Trinucleotide cap analogs with triphosphate chain modifications: synthesis, properties, and evaluation as mRNA capping reagents” (Nucleic Acids Research, 2024)

Key:
[1] = biological target: T1, T7 RNA polymerase (Escherichia phage T7, UniProt P00573); test: Capping efficiency of short RNA in in vitro transcription (co-transcriptional capping); type: biochemical
T1 construct: 6xHis (N); made in house; host or cells: E. coli BL21 (DE3) RIL

[2] = test system: A549 cells; conditions: for protein production / translation of capped mRNA (in words): A549, GLuc mRNA, comparator as worded (cap-1 RNA or ARCA-capped RNA)
[3] = test system: JAWS II cells; conditions: JAWS II; for protein production / translation of capped mRNA (in words): GLuc mRNA, comparator as worded (cap-1 RNA or ARCA-capped RNA)
[4] = biological target: T2, human eIF4E1a (Homo sapiens, UniProt P06730); test: Fluorescence quenching titration (FQT) binding assay with eIF4E; conditions: 20 °C, pH 7.2, average of triplicates ± SD, read-out: heIF4E1a KD
T2 construct: made in house; host or cells: E. coli Rosetta 2 (DE3)pLysS
T2 sequence (P06730 whole entry): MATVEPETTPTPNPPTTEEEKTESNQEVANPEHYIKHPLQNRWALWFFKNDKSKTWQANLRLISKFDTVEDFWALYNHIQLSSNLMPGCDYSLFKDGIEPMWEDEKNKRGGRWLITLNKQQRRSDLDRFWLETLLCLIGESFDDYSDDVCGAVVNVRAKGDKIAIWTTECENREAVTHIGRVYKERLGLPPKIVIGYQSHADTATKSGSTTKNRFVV
Method: The human eIF4E1a protein was expressed without affinity tag in E. coli Rosseta 2 (DE3)pLysS strain (Novagen) under conditions leading to accumulation of the produced protein in inclusion bodies ([48]). The protein was extracted from inclusion bodies with buffer containing 6 M guanidine hydrochloride, refolded by one-step dialysis against 50 mM HEPES/KOH (pH 7.2), 100 mM KCl, 0.5 mM EDTA, 2 mM DTT, and purified by ion exchange chromatography on HiTrap SP HP 5 ml column (GE Healthcare) using salts gradient. Finally, protein was filtered using Ultrafree MC-HV Centrifugal PVDF filters with 0.45 μm membrane pore (Millipore) to remove protein aggregates and its concentration was determined spectrophotometrically assuming the theoretical extinction coefficient ϵ280nm = 52 940 L mol^−1cm^−1—calculated from amino acid composition using algorithm on ExPASy Server.
Fluorescence titration measurements were carried out on a LS-55 spectrofluorometer (Perkin Elmer Co., Norwalk, CT, USA) in a quartz semi-micro cuvette (Hellma, Germany) with optical lengths 4 mm and 10 mm for absorption and emission, respectively, which was thermostated at 20.0 ± 0.2 °C. The titrations were performed in 50 mM Hepes/KOH pH 7.2, 100 mM KCl, 0.5 mM EDTA and 1 mM DTT by adding 1 μl aliquots of increasing concentrations of the cap solutions to 1.4 ml of 0.1 μM eIF4E1a solution. The eIF4E1a fluorescence was excited at 280 nm and the fluorescence intensity was monitored at a single wavelength 340 nm. The measured fluorescence intensities were corrected for dilution (<4%) and for the inner filter effect. Association equilibrium constants (Kas) were obtained by fitting the theoretical curve for fluorescence intensity (F) upon total concentration of cap analogs ([L]) to the titration data according to the equation: […]
with the concentration of the cap analogs–eIF4E1a complex [cx] given by:
where Δϕ stands for the difference between the fluorescence efficiencies of the apo- and cap analog bound proteins; ϕlig-free is the fluorescence efficiency of the free cap analog; F(0) is the initial fluorescence, and Pact is the total concentration of the active protein ([49]). The final KAS values were calculated as a weighted average from three independent titrations and represented as the KD values. Numerical least-squares nonlinear regression analysis was performed using ORIGIN 2021 from Microcal Software Inc., USA.
Recognition of the mRNA 5′ cap by translation initiation factor 4E (eIF4E) is considered to be the rate-limiting step for the entire translation process ([63],[64]), therefore we investigated the affinity of novel trinucleotide cap analogs to the canonical human eIF4E1a protein by fluorescence quenching titration (FQT; Table 1 column 1, Figure 3) ([65]). As a reference, we determined the dissociation constant between heIF4E1a and the trinucleotide cap-1 structure m^7GpppAmpG, which was equal to 42 nM and very close to the analogous value previously determined for mouse Δ27NeIF4E (46 nM) ([12]). In the case of all modifications tested, the KD values for cap-heIF4E1a complexes are consistent with the results previously obtained for dinucleotide counterparts and murine eIF4E protein, although the magnitude of the modification effect is generally lower. The most tightly bound tetraphosphate analogs (compounds 10–12) show KD values of 6–7 nM, which means that their affinity is about 6-fold higher compared to the triphosphate counterparts. The affinities decrease upon CH2 or CCl2 modification of the tetraphosphate bridge (compounds 13–16), but they are still 4–5 times higher than for the triphosphate analogs with the same adenosine methylation pattern.

[5] = biological target: T3, Human Dcp2 (Homo sapiens, UniProt Q8IU60); test: RNA decapping assay with recombinant hDcp2; type: biochemical; conditions: fraction of decapped RNA after 30 min of incubation with hDcp2, 27-nt RNA capped with the analog, 37 °C; triplicates ± SD
T3 construct: made in house; host or cells: E. coli
Method: Human Dcp2 was expressed in E. coli and purified as described previously ([52]). Short 27 nt-capped RNAs (24.2 ng) were diluted with decapping buffer (50 mM Tris–HCl pH 8.0, 50 mM NH4Cl, 0.01% NP-40, 1 mM DTT, 5 mM MgCl2 and 2 mM MnCl2; 2.9 μl of freshly prepared 10 × Buffer) and the final volume was adjusted to 29 μl with ultrapure RNase free water. 4.2 ng (5 μl) of the solution was taken out as time zero reference and diluted with 5 μl loading dye (5 M urea, 44% formamide, 20 mM EDTA, 0.03% bromophenol blue, 0.03% xylene cyanol). The remaining RNAs (20 ng/24 μl) were subjected to 10 nM hDcp2 (250 nM, 1 μl) and the mixtures were incubated at 37°C for 1 h. At defined time points (5, 15, 30 and 60 min), 4 ng of RNA (5 μl) were taken out and the reactions were quenched by adding an equal volume of loading dye. RNAs were resolved electrophoretically on denaturing 15% acrylamide:bisacrylamide 19:1/7 M urea/1 × TBE gel, stained with SYBR Gold (Invitrogen) and visualized using a Typhoon FLA 9500 (GE Healthcare). The decapping progress was determined for each time point by densitometry analysis of the gels, as a ratio between the intensity of the band corresponding to capped RNA and the sum of the intensity of bands from capped and uncapped RNAs. The percentages of remaining capped RNA were then plotted as a function of time.
The RNAs used to determine the capping efficiencies were also useful to study the susceptibility of capped RNA to decapping by hDcp2, the catalytic subunit of the major human mRNA decapping complex Dcp1/Dcp2, which releases m^7GDP and 5′-monophosphorylated RNA (in this case the 26-nt pApG-RNA24; Figure 4C). The progress of decapping at different time points (5, 15, 30 and 60 min) was monitored by HR-PAGE followed by densitometric analysis of the gels (Figure 4C, triplicates of gels are shown in Supplementary Figure S2), and the fraction of remaining capped RNA (27-nt) was plotted as a function of time (Figure 4D-G). […] For better visualization, the data of modified capped RNAs were grouped according to the type of modification present at the 5′ end and presented in separate graphs (Figure 4E–G). To quantify the relative susceptibility to hDcp2, we compared the decapping levels at the 30 min time point (Table 1). For RNAs capped with β-S-triphosphate analogs (1–6, Figure 4E, Table 1), we observed a significant difference in susceptibility to hDcp2 between RP and SP isomers, independent of the methylation pattern.

[6] = short RNA (27 nt after trimming), Φ6.5 promoter, densitometry of PAGE, average of triplicates ± SD

T1 sequence (P00573 whole entry): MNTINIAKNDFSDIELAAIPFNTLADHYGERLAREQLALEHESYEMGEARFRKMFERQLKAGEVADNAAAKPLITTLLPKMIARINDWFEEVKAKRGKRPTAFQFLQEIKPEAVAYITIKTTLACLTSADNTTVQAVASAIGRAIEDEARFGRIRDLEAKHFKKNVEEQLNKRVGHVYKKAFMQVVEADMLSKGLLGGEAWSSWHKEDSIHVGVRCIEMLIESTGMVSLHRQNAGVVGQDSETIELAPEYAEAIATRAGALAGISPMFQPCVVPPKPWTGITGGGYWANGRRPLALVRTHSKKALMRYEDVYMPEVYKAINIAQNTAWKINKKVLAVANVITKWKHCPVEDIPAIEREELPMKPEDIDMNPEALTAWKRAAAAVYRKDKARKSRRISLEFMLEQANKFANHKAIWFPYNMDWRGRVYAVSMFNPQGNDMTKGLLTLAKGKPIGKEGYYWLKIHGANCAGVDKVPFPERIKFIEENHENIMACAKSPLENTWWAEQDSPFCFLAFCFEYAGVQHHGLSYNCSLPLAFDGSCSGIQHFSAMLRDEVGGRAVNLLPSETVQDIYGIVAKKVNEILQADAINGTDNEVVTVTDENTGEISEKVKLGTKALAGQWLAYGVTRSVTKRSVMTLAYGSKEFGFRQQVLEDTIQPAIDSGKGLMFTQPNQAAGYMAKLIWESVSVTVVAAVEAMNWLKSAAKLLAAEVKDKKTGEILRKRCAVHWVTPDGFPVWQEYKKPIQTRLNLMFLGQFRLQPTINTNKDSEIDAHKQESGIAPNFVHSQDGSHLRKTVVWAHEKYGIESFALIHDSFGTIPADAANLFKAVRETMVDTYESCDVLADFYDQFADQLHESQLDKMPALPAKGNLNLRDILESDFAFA

SMILES	Capping efficiency [1, 6]	protein production / translation of capped mRNA (in words) [2]	protein production / translation of capped mRNA (in words) [3]	fold higher protein levels than mRNA capped with unmodified cap-1 (m^7GpppAmpG) ([2]; A549)	fold higher protein levels than mRNA capped with unmodified cap-1 (m^7GpppAmpG) [3]	Capping efficiency ([1]; short RNA, densitometry, value from one replicate only)	Kd [4]	Susceptibility to hDcp2 (@30 min) [5]
C[n+]1cn([C@@H]2O[C@H](COP(=O)(O)O[P@@](=O)([S-])OP(=O)(O)OC[C@H]3O[C@@H](n4cnc5c(N)ncnc54)[C@H](O)[C@@H]3OP(=O)(O)OC[C@H]3O[C@@H](n4cnc5c(=O)[nH]c(N)nc54)[C@H](O)[C@@H]3O)[C@@H](O)[C@H]2O)c2nc(N)nc(O)c21 [Compound 1, m^7GppSpApG]	86 ± 7%	significantly less protein	significantly less protein					
C[n+]1cn([C@@H]2O[C@H](COP(=O)(O)O[P@](=O)([S-])OP(=O)(O)OC[C@H]3O[C@@H](n4cnc5c(N)ncnc54)[C@H](O)[C@@H]3OP(=O)(O)OC[C@H]3O[C@@H](n4cnc5c(=O)[nH]c(N)nc54)[C@H](O)[C@@H]3O)[C@@H](O)[C@H]2O)c2nc(N)nc(O)c21 [Compound 2, m^7GppSpApG]	87 ± 4%	significantly less protein	significantly less protein					
C[n+]1cn([C@@H]2O[C@H](COP(=O)(O)OP(=O)(O)OP(=O)([O-])SC[C@H]3O[C@@H](n4cnc5c(N)ncnc54)[C@H](O)[C@@H]3OP(=O)(O)OC[C@H]3O[C@@H](n4cnc5c(=O)[nH]c(N)nc54)[C@H](O)[C@@H]3O)[C@@H](O)[C@H]2O)c2nc(N)nc(O)c21 [Compound 7, m^7Gppp^5’SApG]	80 ± 2%	not as beneficial	not as beneficial					
CO[C@@H]1[C@H](OP(=O)(O)OC[C@H]2O[C@@H](n3cnc4c(=O)[nH]c(N)nc43)[C@H](O)[C@@H]2O)[C@@H](CSP(=O)([O-])OP(=O)(O)OP(=O)(O)OC[C@H]2O[C@@H](n3c[n+](C)c4c(O)nc(N)nc43)[C@H](O)[C@@H]2O)O[C@H]1n1cnc2c(N)ncnc21 [Compound 8, m^7Gppp^5’SAmpG]	85 ± 5%	slightly increased translational activity	slightly increased translational activity	1.1–1.3 fold	1.1–1.3 fold			
CO[C@@H]1[C@H](OP(=O)(O)OC[C@H]2O[C@@H](n3cnc4c(=O)[nH]c(N)nc43)[C@H](O)[C@@H]2O)[C@@H](COP(=O)(O)CP(=O)(O)OP(=O)([O-])OC[C@H]2O[C@@H](n3c[n+](C)c4c(O)nc(N)nc43)[C@H](O)[C@@H]2O)O[C@H]1n1cnc2c(N)ncnc21 [Compound 9, m^7GppCH2pAmpG]		reduced the translational activity to the level observed for mRNAs with caps-0	reduced the translational activity to the level observed for mRNAs with caps-0			88%^d		
C[n+]1cn([C@@H]2O[C@H](COP(=O)(O)OP(=O)(O)OP(=O)([O-])OP(=O)(O)OC[C@H]3O[C@@H](n4cnc5c(N)ncnc54)[C@H](O)[C@@H]3OP(=O)(O)OC[C@H]3O[C@@H](n4cnc5c(=O)[nH]c(N)nc54)[C@H](O)[C@@H]3O)[C@@H](O)[C@H]2O)c2nc(N)nc(O)c21 [Compound 10, m^7GppppApG]	86 ± 2%						5.9 ± 0.2 nM	0.65 ± 0.09
CO[C@@H]1[C@H](OP(=O)(O)OC[C@H]2O[C@@H](n3cnc4c(=O)[nH]c(N)nc43)[C@H](O)[C@@H]2O)[C@@H](COP(=O)(O)OP(=O)([O-])OP(=O)(O)OP(=O)(O)OC[C@H]2O[C@@H](n3c[n+](C)c4c(O)nc(N)nc43)[C@H](O)[C@@H]2O)O[C@H]1n1cnc2c(N)ncnc21 [Compound 11, m^7GppppAmpG]	86 ± 2%						7.2 ± 0.3 nM	0.87 ± 0.05
CO[C@@H]1[C@H](OP(=O)(O)OC[C@H]2O[C@@H](n3cnc4c(=O)[nH]c(N)nc43)[C@H](O)[C@@H]2O)[C@@H](COP(=O)([O-])OP(=O)(O)CP(=O)(O)OP(=O)(O)OC[C@H]2O[C@@H](n3c[n+](C)c4c(O)nc(N)nc43)[C@H](O)[C@@H]2O)O[C@H]1n1cnc2c(N)ncnc21 [Compound 16, m^7GppCH2ppAmpG]	84 ± 3%							
CO[C@@H]1[C@H](O)[C@@H](COP(=O)(O)O[P@](=O)([S-])OP(=O)(O)OC[C@H]2O[C@@H](n3cnc4c(=O)[nH]c(N)nc43)[C@H](O)[C@@H]2O)O[C@H]1n1c[n+](C)c2c(O)nc(N)nc21 [m2^7,2′^-OGppSpG RP (D1), m2^7,2′-OGppSpG, reference compound]		the effect was much smaller	translated much more efficiently than ARCA-capped RNA					

Marks after values point to notes of the source that are not given here.
